Reference: patent US20250066451A1 (SWEDISH ORPHAN BIOVITRUM AB PUBL, published 2025)

T1: IL-1R-I on TF-1 cells (UniProt P14778 18-569, limits assumed)
T1 sequence (looked up): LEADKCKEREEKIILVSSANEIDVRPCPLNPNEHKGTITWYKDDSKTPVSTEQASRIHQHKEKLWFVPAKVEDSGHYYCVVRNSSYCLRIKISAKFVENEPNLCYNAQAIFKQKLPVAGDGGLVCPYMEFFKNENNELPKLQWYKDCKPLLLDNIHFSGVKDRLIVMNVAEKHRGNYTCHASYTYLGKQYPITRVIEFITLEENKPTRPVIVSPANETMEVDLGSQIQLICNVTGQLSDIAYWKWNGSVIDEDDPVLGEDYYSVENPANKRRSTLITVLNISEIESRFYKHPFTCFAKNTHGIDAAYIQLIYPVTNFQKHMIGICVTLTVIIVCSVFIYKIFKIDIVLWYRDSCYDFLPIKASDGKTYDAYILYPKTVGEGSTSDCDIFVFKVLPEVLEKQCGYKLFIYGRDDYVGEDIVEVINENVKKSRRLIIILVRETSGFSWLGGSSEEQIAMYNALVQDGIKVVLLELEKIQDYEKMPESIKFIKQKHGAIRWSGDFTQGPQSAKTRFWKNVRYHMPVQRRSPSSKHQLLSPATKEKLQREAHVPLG

T2: human IL-1R-I (RnD Systems cat. no. 269-1R/CF) (human, UniProt P14778 18-332, limits assumed)
T2 construct: bought protein; also called hIL-1R-I; hIL-1RI
T2 sequence (looked up): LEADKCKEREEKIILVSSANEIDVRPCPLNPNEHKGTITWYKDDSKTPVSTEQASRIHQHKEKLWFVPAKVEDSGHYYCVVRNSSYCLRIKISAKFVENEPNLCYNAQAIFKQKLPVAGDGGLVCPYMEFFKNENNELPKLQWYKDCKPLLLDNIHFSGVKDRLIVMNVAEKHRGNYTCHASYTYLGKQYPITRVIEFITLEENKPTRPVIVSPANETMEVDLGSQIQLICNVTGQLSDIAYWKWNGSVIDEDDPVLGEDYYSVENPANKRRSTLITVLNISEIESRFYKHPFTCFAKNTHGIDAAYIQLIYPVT

T3: IL-1R-I on TF-1 cells (UniProt P14778 18-569, limits assumed)
T3 sequence (looked up): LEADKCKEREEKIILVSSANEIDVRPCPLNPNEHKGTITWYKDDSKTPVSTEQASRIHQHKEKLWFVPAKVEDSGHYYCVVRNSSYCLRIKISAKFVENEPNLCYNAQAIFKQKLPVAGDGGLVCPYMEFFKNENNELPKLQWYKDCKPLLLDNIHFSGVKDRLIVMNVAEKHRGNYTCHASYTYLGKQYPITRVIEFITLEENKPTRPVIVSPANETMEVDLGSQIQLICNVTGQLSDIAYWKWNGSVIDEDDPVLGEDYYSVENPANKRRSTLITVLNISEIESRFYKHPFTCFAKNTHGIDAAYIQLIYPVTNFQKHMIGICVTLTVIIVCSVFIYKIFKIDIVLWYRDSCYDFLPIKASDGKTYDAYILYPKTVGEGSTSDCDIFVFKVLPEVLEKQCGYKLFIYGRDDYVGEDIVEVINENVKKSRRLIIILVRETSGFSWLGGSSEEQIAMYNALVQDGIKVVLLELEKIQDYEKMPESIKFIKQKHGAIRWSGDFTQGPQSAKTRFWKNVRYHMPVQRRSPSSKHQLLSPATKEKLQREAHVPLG

T4: human IL-1R-I (human, UniProt P14778 18-332, limits assumed)
T4 construct: bought recombinant protein; also called hIL-1R-I; hIL-1RI
T4 sequence (looked up): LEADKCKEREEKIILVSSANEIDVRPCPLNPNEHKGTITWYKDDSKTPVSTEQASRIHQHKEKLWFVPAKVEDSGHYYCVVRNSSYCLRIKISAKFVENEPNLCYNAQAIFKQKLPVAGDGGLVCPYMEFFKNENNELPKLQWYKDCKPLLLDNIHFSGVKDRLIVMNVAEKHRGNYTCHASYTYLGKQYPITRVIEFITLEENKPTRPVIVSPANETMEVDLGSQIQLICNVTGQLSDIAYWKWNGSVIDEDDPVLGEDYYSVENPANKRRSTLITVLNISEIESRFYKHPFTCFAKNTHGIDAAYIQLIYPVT

T5: Human IL-1R-I-Fc (Creative BioMart cat. no. IL1RI-771H) (human, UniProt P14778 18-332, limits assumed)
T5 construct: Bought protein; also called hIL-1R-I-Fc; hIL-1RI-Fc; not shown: Fc part of the bought fusion
T5 sequence (looked up): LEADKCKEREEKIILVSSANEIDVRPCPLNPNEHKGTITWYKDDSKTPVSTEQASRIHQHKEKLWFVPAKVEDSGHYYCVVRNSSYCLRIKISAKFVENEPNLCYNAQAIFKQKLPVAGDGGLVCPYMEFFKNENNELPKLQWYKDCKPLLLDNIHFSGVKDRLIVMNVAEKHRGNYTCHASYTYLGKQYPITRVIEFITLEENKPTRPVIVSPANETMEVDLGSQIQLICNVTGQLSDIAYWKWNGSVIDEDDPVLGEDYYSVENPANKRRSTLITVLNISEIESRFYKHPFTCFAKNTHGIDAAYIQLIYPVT


Experiments:
IL-1R-I on TF-1 cells [1] = molecular target: T1, IL-1R-I on TF-1 cells; assay: cell-based or functional assay
[2] = molecular target: T2, human IL-1R-I (RnD Systems cat. no. …); assay: Biacore SPR, hIL-1R-I immobilized, 1:1 model
Source text: One flow cell surface on the chip was activated and deactivated for use as blank during analyte injections.

IL-1R-I on TF-1 cells [3] = molecular target: T3, IL-1R-I on TF-1 cells; assay: cell-based or functional assay; remark: listed apart in the source
human IL-1R-I = molecular target: T4, human IL-1R-I; assay: SPR; hIL-1R-I immobilized, His6-Z injected
[4] = molecular target: T5, Human IL-1R-I-Fc (Creative BioMart cat. …); assay: ELISA titration; Z-ABD periplasmic extract, hIL-1R-I-Fc 100-0.01 nM

| Binder | IC50, TF-1 cell assay (IL-1β neutralization) (IL-1R-I on TF-1 cells [3]) [nM] | Kd (human IL-1R-I) [nM] | koff (human IL-1R-I) [s⁻¹] | kon (human IL-1R-I) [M⁻¹ s⁻¹] | EC50 [4] [nM] | also measured |
| --- | --- | --- | --- | --- | --- | --- |
| His6-Z17292 (designed binder) MGSSHHHHHHLQVDAKYAKEVEYAYFEIYSLPNLTRKQYTAFIRKLLDDPSQSSELLSEAKKLNDSQAPKVD |  |  |  |  |  | IC50 (nM), TF-1 cell assay (IL-1R-I on TF-1 cells [1]): 13.2 nM; Kd [2]: 0.38 nM; koff [2]: 0.005 s⁻¹; kon [2]: 1.3e+07 M⁻¹ s⁻¹ |
| Z18832 (His6-Z) (designed binder) MGSSHHHHHHLQVDAKYAKEVEEIQMEIFHLPNLTRRQYTAFIRKLLDDPSQSSELLSEAKKLNDSQAPKVD | 0.5 | 0.12 | 0.007 | 5.9e+07 |  |  |
| His6-Z18557 (designed binder) MGSSHHHHHHLQVDAKYAKEIEAVQMEIFYLPNLTRKQYTAFIRKLFDDPSQSSELLSEAKKLNDSQAPKVD |  |  |  |  |  | IC50 (nM), TF-1 cell assay (IL-1R-I on TF-1 cells [1]): < 0.5 nM; Kd [2]: 0.15 nM; koff [2]: 0.00067 s⁻¹; kon [2]: 4.4e+06 M⁻¹ s⁻¹ |
| Z15934 (His6-Z) (designed binder) MGSSHHHHHHLQVDAKYAKEVTVAQMEIFALPNLTRKQYTAFIRKLLDDPSQSSELLSEAKKLNDSQAPKVD | 6.4 | 0.75 | 0.011 | 1.4e+07 |  |  |
| Z12895 as Z-ABD fusion (periplasmic extract) (designed binder) AQHDEALEVDAKYAKEALSAQQEIFALPNLTRRQYTAFIRKLLDDPSQSSELLSEAKKLNDSQAPKVDYVLAEAKVLANRELDKYGVSDYYKNLINNAKTVEGVKALIDEILAALPYVPG |  |  |  |  | 0.23 |  |
| Z12922 as Z-ABD fusion (periplasmic extract) (designed binder) AQHDEALEVDAKYAKEDEQAQLEIFNLPNLTRRQYTAFIRKLLDDPSQSSELLSEAKKLNDSQAPKVDYVLAEAKVLANRELDKYGVSDYYKNLINNAKTVEGVKALIDEILAALPYVPG |  |  |  |  | 2.9 |  |
| Z12961 as Z-ABD fusion (periplasmic extract) (designed binder) AQHDEALEVDAKYAKEARSAYAEIYGLPNLTRRQYTAFIIKLLDDPSQSSELLSEAKKLNDSQAPKVDYVLAEAKVLANRELDKYGVSDYYKNLINNAKTVEGVKALIDEILAALPYVPG |  |  |  |  | 0.29 |  |
| Z12975 as Z-ABD fusion (periplasmic extract) (designed binder) AQHDEALEVDAKYAKEAHNAQQEIYRLPNLTRRQYTAFIIKLLDDPSQSSELLSEAKKLNDSQAPKVDYVLAEAKVLANRELDKYGVSDYYKNLINNAKTVEGVKALIDEILAALPYVPG |  |  |  |  | 0.26 |  |
| Z12929 as Z-ABD fusion (periplasmic extract) (designed binder) AQHDEALEVDAKYAKEQADAYAEIYSLPNLTRKQYVAFIRKLIDDPSQSSELLSEAKKLNDSQAPKVDYVLAEAKVLANRELDKYGVSDYYKNLINNAKTVEGVKALIDEILAALPYVPG |  |  |  |  | 17 |  |

Second part, led by results:

| IC50, TF-1 cell assay (IL-1β neutralization) (IL-1R-I on TF-1 cells [3]) [nM] | Kd (human IL-1R-I) [nM] | koff (human IL-1R-I) [s⁻¹] | kon (human IL-1R-I) [M⁻¹ s⁻¹] | EC50 [4] [nM] | Binder | also measured |
| --- | --- | --- | --- | --- | --- | --- |
| 3.3 | 0.71 | 0.029 | 4.1e+07 |  | Z15975 (His6-Z) (designed binder) MGSSHHHHHHLQVDAKYAKEVETAQMEIFVLPNLTRKQYTAFIRKLLDDPSQSSELLSEAKKLNDSQAPKVD |  |
| 0.6 | 0.086 | 0.006 | 7e+07 |  | Z18754 (His6-Z) (designed binder) MGSSHHHHHHLQVDAKYAKEVEEIQMEIFRLPNLTRRQYTAFIRKLLDDPSQSSELLSEAKKLNDSQAPKVD |  |
| 0.9 | 0.21 | 0.0027 | 1.3e+07 |  | Z18760 (His6-Z) (designed binder) MGSSHHHHHHLQVDAKYAKETEAVQMEIFALPNLTRRQYTAFIRKLLDDPSQSSELLSEAKKLNDSQAPKVD |  |
